Measurements from PubChem BioAssay AID651820 (National Center for Advancing Translational Sciences (NCATS), 2012).
The campaign covered roughly 340,000 compounds. About 12,000 (3.5%) were called active. Inconclusive results, whose numbers are uncertain, are shown with a selection of clear calls. Calls come from the whole dose curve; as a rule, active = well fitted inhibition curve with a large enough effect; inconclusive = small, poorly fitted or top-dose-only effect, or another doubt; inactive = no such curve, though single readings can be large or run the other way. Potencies of inconclusive entries are left out as doubtful fits.

assay: qHTS Assay for Inhibitors of Hepatitis C Virus (HCV); conditions: Huh7.5.1 HCVcc-Cre (HCVcc is cell-culture hepatitis C virus) infection, luciferase reporter, 44 h; series mostly up to 41.8 µM
Outline: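 1,000 cells/well; 4 h culture; + compound; + HCVcc-Cre (~0.5 moi); 44 h; luciferase substrate, RT 15 min; read 15 sec.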
Potency is the fitted concentration of half-maximal effect; tags give direction and shape of the fitted curve.

| Structure (SMILES) | Potency |
| --- | --- |
| CCc1noc(C)c1C(=O)Nc1nc(-c2ccc(OC)cc2OC)cs1 | inconclusive [inhibitor, partial curve] |
| CCC1(C)Cc2ccccc2-c2nc3n(c(=O)c21)CCS3 (stereo not given) | inconclusive [inhibitor, partial curve] |
| Cc1ccc(C)c(Sc2ccc(NC(=O)CCN3C(=O)NC4(CCCC4)C3=O)cc2)c1 | inconclusive [inhibitor, single point] |
| COc1ccccc1-n1nnnc1SCC(=O)NC1CCCC1 | inconclusive [inhibitor, full curve, poor fit] |
| Cc1c(N=C(N)/N=C(\N)Nc2ccc(Br)cc2)c(=O)n(-c2ccccc2)n1C | inconclusive [inhibitor, partial curve, poor fit] |
| CCNc1c(NS(=O)(=O)c2ccc(F)c(Cl)c2)c(=O)oc2ccccc12 | inconclusive [inhibitor, partial curve] |
| COc1ccc(C(C)=O)cc1CSc1ncccn1 | inconclusive [inhibitor, single point] |
| C=CCc1cccc(/C=N/NC(=O)CCC(=O)Nc2ccc(C)cc2)c1O | inconclusive [inhibitor, single point] |
| Cc1nn(Cc2ccc(Cl)cc2)c(C)c1NC(=O)C(c1ccccc1)c1ccccc1 | inconclusive [inhibitor, partial curve] |
| CCCn1c(SCC(=O)N2CCCc3ccccc32)nnc1-c1ccccn1 | inconclusive [inhibitor, partial curve, poor fit] |
| Cc1nnc(-c2ccccc2)c(=O)n1/N=C/c1c(O)ccc2ccccc12 | inconclusive [inhibitor, partial curve] |
| Cc1ccc(OCC(=O)N2CCC(C)CC2)c([N+](=O)[O-])n1 | inactive |
| COc1ccc(-c2nc(C#N)c(N3CCN(c4cccc(Cl)c4)CC3)o2)cc1OC | inconclusive [inhibitor, partial curve] |
| Cc1noc(C)c1S(=O)(=O)N(CC(=O)NCc1ccc2c(c1)OCO2)c1ccc(C(C)C)cc1 | inconclusive [inhibitor, single point] |
| N#Cc1nc(-c2ccccc2Cl)oc1N1CCCCC1 | inconclusive [inhibitor, partial curve] |
| COc1ccc(C2=NOC(C(=O)Nc3cc(C)on3)C2)cc1OC (stereo not given) | inactive |
| O=C(CSc1nc2c([nH]c3ccccc32)c(=O)n1-c1ccccc1F)NCC1CCCO1 (stereo not given) | inconclusive [inhibitor, single point] |
| COc1ccc(NC(=O)Cn2nnc(C(=O)Nc3ccc(F)c(Cl)c3)c2N)cc1OC | inconclusive [inhibitor, single point] |
| CCN(CC)CCN1C(=O)C(O)=C(C(=O)c2cccs2)C1c1ccc(C)o1 (stereo not given) | inactive |
| C[C@@H]1CN([C@H](C)CO)C(=O)c2cccc(NC(=O)NC3CCCCC3)c2O[C@@H]1CN(C)C(=O)Nc1ccc(C(F)(F)F)cc1 | inconclusive [inhibitor, single point] |

| Structure (SMILES) | Potency |
| --- | --- |
| COc1cc(/C=C/C(=O)c2ccc(NS(=O)(=O)c3ccc(C)cc3)cc2)ccc1OC(F)F | active: 35.5 µM |
| COC(=O)c1[nH]c2c(c1C(=O)OC)CCc1ccccc1-2 | inconclusive [inhibitor, single point] |
| OC(CNCc1ccco1)Cn1c2ccc(Br)cc2c2cc(Br)ccc21 (stereo not given) | inconclusive [inhibitor, single point] |
| CCc1cc2c(COC(=O)c3cc(S(=O)(=O)N4CCOCC4)ccc3F)cc(=O)oc2cc1O | inconclusive [inhibitor, full curve] |
| Cc1ccc(C)c(S(=O)(=O)N2CCN(Cc3ccc(O)c4ncccc34)CC2)c1 | inconclusive [inhibitor, partial curve] |
| O=C(CSc1ccccc1)N1CCCC(N2CCN(c3ccccc3)CC2)C1 (stereo not given) | inconclusive [inhibitor, single point] |
| CCOc1ccc(S(=O)(=O)N2CCN(Cc3ccccc3)CC2)cc1 | inactive |
| C=CCSc1nnc(CCCCCN2C(=O)c3cccc4cccc(c34)C2=O)o1 | inconclusive [inhibitor, partial curve] |
| Cc1ccc(SCCCCN2C(=O)NC(C)(C)C2=O)cc1 | inconclusive [inhibitor, partial curve] |
| CC[C@]12c3[nH]c4ccc(Cl)cc4c3CCN1C(=O)[C@@H](CC(=O)NCC13CC4CC(CC(C4)C1)C3)C[C@@H]2C(=O)N1CCN(C(=O)c2ccco2)CC1 | inconclusive [inhibitor, single point] |
| COCCCn1c(SCC(=O)Nc2sc3c(c2C#N)CCCC3)nnc1-c1ccncc1 | inconclusive [inhibitor, single point] |
| Cn1c(CNc2nc(-c3ccccc3)cs2)nnc1SCC(=O)N1CCc2ccccc21 | inconclusive [inhibitor, single point] |
| CCCCn1c(NS(=O)(=O)c2ccc(C)cc2)c(C(=O)OCC)c2nc3ccccc3nc21 | inactive |
| COc1ccc(NC(=S)c2ccccc2)cc1 | inactive |
| N#C/C(=C/c1ccc(N2CCCCC2)o1)C(=O)NCCc1c[nH]c2ccccc12 | inconclusive [inhibitor, single point] |
| Cc1ccc(S(=O)(=O)N2CCN(c3ncnc4scc(-c5ccc(F)cc5)c34)CC2)cc1 | inconclusive [inhibitor, full curve] |
| Cc1c(N2C(=O)CSC2c2ccco2)c(=O)n(-c2ccccc2)n1C (stereo not given) | inactive |
| CCOc1cc(C2NN=C(c3ccc(C)cc3)S2)ccc1O (stereo not given) | inconclusive [inhibitor, single point] |
| CC(=O)Nc1cc(C)nn1-c1nc2ccccc2s1 | inconclusive [inhibitor, partial curve] |
| COc1cc(C(=O)Nc2ccc(NC(=O)C(C)C)nc2)cc(OC)c1OC | inactive |
